From PubChem BioAssay AID1240 (Sanford-Burnham Center for Chemical Genomics, 2008) come the findings set out here.

Hit rate of the full screen: of about 50,000 compounds, about 800 (1.6%) showed an effect of 50% or more. The list shows a part of the results.

The test concerns the target Bcl-2-like protein 10 (Homo sapiens) (UniProt Q9HD36). The test is described as follows: Phenotype converters, Bcl-B/TR3 peptide binding displacement, primary biochemical FP (AID 1240).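 Further: 0% = Bcl-B with tracer peptide and DMSO and 100% = tracer peptide lacking Bcl-B.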 Particulars: GST-Bcl-B / FITC-TR3 peptide fluorescence polarization; stronger effect = higher value; compound at 3.75 mg/L.
Chain of UniProt Q9HD36 (Q9HD36 whole entry, looked up): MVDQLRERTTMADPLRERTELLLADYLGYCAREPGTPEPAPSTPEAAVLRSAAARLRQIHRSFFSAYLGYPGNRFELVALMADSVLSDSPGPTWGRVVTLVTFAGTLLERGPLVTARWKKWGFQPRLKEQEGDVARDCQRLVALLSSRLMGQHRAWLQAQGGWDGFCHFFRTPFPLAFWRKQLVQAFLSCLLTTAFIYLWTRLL
As to `CN1C(=O)/C(=C/c2cc([N+](=O)[O-])ccc2O)SC1=S`, the displacement was -14.4%.

For `Cc1ccc(C(=O)Nc2ccccn2)cc1`, the displacement is 4.6%.

As for `Cc1cc(C)nc(SCC(=O)N2c3ccccc3CCc3ccccc32)n1`, the displacement was 0.8%.

Take `COc1ccccc1NC(=O)c1ccc2c3c(cccc13)CC2`: the displacement was -2.4%.

For the compound `CCOC(=O)C1CCN(C(=S)NC23CC4CC(CC(C4)C2)C3)CC1`, the displacement was -1.9%.

As to `Cc1ccc2cccc(SCC(=O)N3CCOCC3)c2n1`, the displacement was -4.9%.

`O=C(NCc1ccco1)c1ccc(Br)cc1`: the displacement came to 11.1%.

As to `Cc1ccccc1OCC(=O)NC1C2CC3CC(C2)CC1C3` (centres undefined), the displacement is -9.2%.

In the case of `O=[N+]([O-])c1cccc(S(=O)(=O)Nc2cccc(I)c2)c1`, the displacement came out at 2.5%.

Regarding `CCCCC(=O)N1c2ccccc2C(N(C(=O)Cc2ccc(F)cc2)c2ccccc2)CC1C` (centres undefined), the displacement is -7.2%.

`Cc1ccc(N2C(=O)NC(=O)/C(=C\c3ccc(-c4ccc([N+](=O)[O-])cc4Cl)o3)C2=O)cc1`: the displacement is 87.2%.

Turning to `CCn1c(=O)c(C(=O)Nc2ccccc2Br)c(O)c2ccccc21`, the displacement turned out to be 8.3%.

For the compound `O=C(CCC1CCCC1)N1CCN(S(=O)(=O)c2ccccc2)CC1`, the displacement worked out at 1.3%.

On to `COc1cc(OC)cc(C(=O)Nc2cc(C34CC5CC(CC(C5)C3)C4)ccc2C)c1`, for which the displacement was -3.8%.

Regarding `COc1ccc(OC)c(C(=O)c2ccccc2)c1`, the displacement was 1.7%.

As for `Cc1ccc(OCC(=O)O/N=C(\N)c2ccncc2)c(Br)c1`, the displacement was -0.1%.

Turning to `CC(=O)n1cnc(-c2ccc(N)c([N+](=O)[O-])c2)c1`, the displacement was found to be 4%.

Turning to `CCOC(=O)c1cccc(N/C(N)=N/c2nc(C(F)(F)F)cc(=O)[nH]2)c1`, the displacement worked out at 1.4%.

As for `O=C(Nc1c[nH]c(=O)[nH]c1=O)c1ccc([N+](=O)[O-])cc1`, the displacement worked out at 6.3%.

In the case of `COc1ccc(C2Nc3ccc(Cl)cc3C(c3ccccc3)O2)cc1` (centres undefined), the displacement was 13.5%.

For the compound `CC(=O)NC1=NC(=O)/C(=C/c2cc(C)n(-c3cccc(C(=O)O)c3)c2C)S1`, the displacement was -66.7%.

For the compound `COc1ccc(C(=O)Nc2ccccc2C(=O)NCCCn2ccnc2)cc1`, the displacement amounted to 11.9%.

Consider `O=C(Nc1nc(-c2ccc(Cl)cc2)cs1)c1cccs1`, for which the displacement was 12%.

Regarding `O=C(COc1ccc(Cl)cc1Br)N/N=C/c1ccc([N+](=O)[O-])s1`, the displacement stood at 4.7%.

As for `CCOc1ccc(C(=O)Nc2cc(Cl)ccc2OC)cc1OCC`, the displacement is 1.6%.

On to `CCc1ccc(NC(=S)NC(=O)c2ccco2)cc1`, for which the displacement amounted to 12.6%.

For the compound `CCC1=NN(C(=O)c2cccc(C)c2O)C(O)(c2ccc(Br)cc2)C1` (centres undefined), the displacement came to 9.8%.

For `CCCCCNC(=O)c1ccc(C(=O)NCCCCC)cc1`, the displacement was 15.9%.

For `O=C(NCc1ccc2c(c1)OCO2)C(c1ccccc1)c1ccccc1`, the displacement was 14.6%.

Take `O=C(O)c1ccccc1C(=O)c1ccc(Cl)c(N2C(=O)CCC2=O)c1`: the displacement is -1.3%.

In the case of `Nc1ccc(S(=O)(=O)Nc2nccc(/C=C\c3ccccc3Cl)n2)cc1`, the displacement was 0.4%.

Take `O=C(Nc1nc(-c2ccco2)cs1)c1ccccc1`: the displacement was -12%.

Take `C/C(=C1/SC(N2CCOCC2)=NC1=O)c1ccc(Br)cc1`: the displacement is -19.2%.

Regarding `Cc1ccc(/C=C(\C#N)c2nc(-c3ccc(C)c(C)c3)cs2)o1`, the displacement is -25.1%.

In the case of `CCN(CC)C(=O)CSc1nc(O)c(Cc2ccc(OC)cc2)c(=O)[nH]1`, the displacement was found to be 6.9%.

With `CC(C)C(=O)Nc1ccc(Br)c(NC(=O)c2ccccc2)c1`, the displacement came to 8.7%.

With `CCCOC(=O)c1cccc(NC(=O)c2cccc(Cl)c2)c1`, the displacement was -9.3%.

With `CC(=O)Oc1ccc2ccccc2c1C(NC(=O)Cc1ccccc1)c1ccccc1Cl` (centres undefined), the displacement came out at 7.4%.

Consider `CCOC(=O)C(C(=O)OCC)=C(N)C(F)(F)F`, for which the displacement amounted to 2%.

As for `O=C(c1ccncc1)N1N=C(C(F)(F)F)CC1(O)c1ccc(Cl)cc1` (centres undefined), the displacement came out at 10.5%.

Turning to `CCCC(=O)Nc1cccc(NC(=O)c2cc(Br)ccc2I)c1`, the displacement came out at 7.3%.

Take `COc1ccccc1NS(=O)(=O)c1ccc(Br)c(C(=O)Nc2ccccc2)c1`: the displacement was -5.2%.

Regarding `COc1ccc(C(=O)N2CCN(CCCc3ccccc3)CC2)cc1OC`, the displacement was -4.5%.

Consider `COC(=O)c1ccccc1NC(=O)c1cnn2c(C(F)(F)F)cc(-c3ccccc3)nc12`, for which the displacement came to 11.9%.

For `COc1ccccc1OCC(=O)Nc1ccc(N(C)C)cc1`, the displacement amounted to 12.2%.

Consider `COc1ccccc1N1C(=O)NC(=O)/C(=C/c2c(OC)ccc3ccccc23)C1=O`, for which the displacement was found to be 1.1%.

In the case of `C=C(C)Cn1c(SCC(=O)O)nnc1-c1ccc(OC)c(OC)c1`, the displacement was -7.2%.

For the compound `COc1ccc(NC(=O)C2=C(C)NC(=O)NC2c2ccc(OC)cc2OC)cc1` (centres undefined), the displacement is -0.2%.

`COc1cc(OC)cc(C(=O)NCCCN2CCOCC2)c1`: the displacement turned out to be 1.2%.

As for `O=c1/c(=C/c2cc(Br)ccc2OCc2ccccc2F)sc2nc3ccccc3n12`, the displacement was 1.9%.

Regarding `Cc1cccc(CSCc2nnc(NC(=O)Nc3ccc(Cl)cc3)s2)c1`, the displacement is -1.4%.

In the case of `Cc1cc(I)ccc1NC(=O)COc1cccc(C)c1C`, the displacement is -5%.

For `C/C(=N\NC(=O)c1cccc(Br)c1)c1cccnc1`, the displacement was -2.9%.

Take `COc1cc(NC(=O)COc2ccc(F)cc2)c(Cl)cc1NC(=O)c1ccccc1`: the displacement was determined as 2.3%.

Consider `Cc1c(OCC(=O)O)ccc2c1oc(=O)c1ccccc12`, for which the displacement turned out to be 12.1%.

Regarding `O=C(O)c1ccc(Oc2cccc([N+](=O)[O-])c2)cc1C(=O)O`, the displacement stood at 1.6%.

For the compound `O=C(Nc1ccc(Cl)cc1)c1cc([N+](=O)[O-])ccc1Cl`, the displacement turned out to be 14%.

Take `COc1ccccc1N1C(=O)CC(Nc2ccc(C)cc2)C1=O` (centres undefined): the displacement is 1.6%.

Consider `COC(=O)c1cccc(NC(=O)c2ccccc2)c1`, for which the displacement is -4.9%.

As to `CCOc1ccc(N(CC(=O)Nc2cccc3ccccc23)S(C)(=O)=O)cc1`, the displacement turned out to be 2.5%.

Turning to `COc1ccc(Nc2nc(NCc3ccco3)nc(N/N=C/c3ccc(O)cc3)n2)cc1`, the displacement is -6.9%.

Take `Cc1ccc(-c2nc3cccnc3o2)cc1NC(=O)COc1ccc2ccccc2c1`: the displacement stood at 1.8%.

For `COc1ccc(C(=O)N2CC(c3ccc(Cl)cc3)CC2=O)cc1` (centres undefined), the displacement was -4%.

As to `CCOc1ccc2nc(N3C(=O)C4C5c6ccccc6C(c6ccccc65)C4C3=O)sc2c1` (centres undefined), the displacement is -9.6%.

Turning to `Cc1ccc2nsnc2c1NC(=O)c1ccc(OCc2ccccc2)cc1`, the displacement was 1.8%.

Take `CCOc1cc(/C=C2\SC(=S)N(NC(=O)c3ccccc3Br)C2=O)ccc1O`: the displacement is -30.3%.

For `O=C(O)C1CCCCC1C(=O)Nc1nc(-c2ccc(Cl)cc2Cl)cs1` (centres undefined), the displacement came to 6.3%.

For the compound `CCOC(=O)C(=CNC(CO)C(=O)O)C(=O)OCC` (centres undefined), the displacement stood at 10%.

For the compound `CCOC(=O)C1=C(c2ccccc2)N=C2SCC(=O)N2C1c1ccc(OC)c(OC)c1` (centres undefined), the displacement turned out to be 0.4%.

Regarding `COc1ccc(C(=O)NCCC2=CCCCC2)cc1OC`, the displacement is -3.4%.

As for `CCOC(=O)c1cc(C#N)c(SCc2ccccc2)[nH]c1=O`, the displacement is -2.6%.

Regarding `O=C(Nc1ccc(Cl)c(Cl)c1)c1cc2n(n1)C(C(F)(F)F)CC(c1ccccc1)N2` (centres undefined), the displacement was 10.5%.

Regarding `COC(=O)c1c(-c2ccccc2Cl)csc1NC(=O)CCC(=O)O`, the displacement is -0.7%.

With `CC(=O)Oc1cc(C)cc2oc(=O)c(Cc3ccccc3)c(C)c12`, the displacement is 3.3%.

With `CCOC(=O)CNC(=O)c1cc(-c2ccc(Cl)c(Cl)c2)nc2ccccc12`, the displacement was 1.2%.

As to `CC(=O)C1=C(C)NC(=O)NC1c1cccc([N+](=O)[O-])c1` (centres undefined), the displacement came to 0.3%.

As for `COc1cc(C(=O)N2CCN(c3ccccc3)CC2)c([N+](=O)[O-])cc1OC`, the displacement was -7.7%.

For `COc1cc(/C=N/NC(=O)COc2ccc(Cl)cc2Br)cc(Br)c1O`, the displacement is -3.2%.

Consider `C=CCn1c(O)c(/C=C2\C=Nc3ccccc32)c(=O)[nH]c1=S`, for which the displacement was -2.9%.

Take `Cc1cccc(C)c1NC(=O)C(=O)NCC1CCCO1` (centres undefined): the displacement came out at 9.2%.

For `COc1cccc(NC(=O)C2C3CCC4C(CCC32)C4(Cl)Cl)c1` (centres undefined), the displacement was -5.7%.

As for `O=C(CN1C(=O)C2(OCCO2)c2cc(Br)ccc21)c1ccc(Br)cc1`, the displacement turned out to be 4%.

Consider `O=C(COc1ccc2ccccc2c1)N1CCN(S(=O)(=O)c2ccc(Cl)cc2)CC1`, for which the displacement was 10.1%.

`COc1ccc(CN=Cc2ccc(OC3CSC3)cc2)cc1`: the displacement came to 3.2%.

In the case of `COc1ccc(C(O)c2nc3ccccc3s2)cc1` (centres undefined), the displacement is -4.6%.

As for `CC(=O)Nc1ccc(S(=O)(=O)N(Cc2ccccc2)C(C)C)cc1`, the displacement came to 130%.

As to `O=[N+]([O-])c1ccccc1-c1ccc(/C=N/n2cnnc2)o1`, the displacement is 8.8%.

Turning to `COc1ccc(N/C(C)=C\C(=O)Nc2ccccc2)cc1`, the displacement is -4.2%.

Consider `CCc1nc2ccccc2n1CC(O)COc1ccc(OC)cc1` (centres undefined), for which the displacement was -11.5%.

`CCN(Cc1ccccc1)S(=O)(=O)c1ccc(NC(C)=O)cc1`: the displacement is 19.2%.

For `CCOC(=O)C1=C(C)N(CCOC)C(=O)/C1=C\c1ccc2c(c1)OCO2`, the displacement stood at 10.5%.

In the case of `COc1nccnc1NS(=O)(=O)c1ccc(NC(=O)c2ccc(S(=O)(=O)N(C)C)cc2)cc1`, the displacement is -4.8%.

With `O=c1[nH]c2ccc(N=Cc3cn(Cc4ccc(Cl)cc4Cl)c4ccccc34)cc2[nH]1`, the displacement worked out at 16.9%.

As to `CCCCC(C(C)=O)C(=O)Nc1ccc(C)cc1` (centres undefined), the displacement was -3.1%.

Regarding `O=C(O)c1cccc([N+](=O)[O-])c1C(=O)Nc1ccc(Cl)cn1`, the displacement was -3.5%.

As to `O=C(O)c1cc(C(=O)O)cc(N2C(=O)c3cccc4c([N+](=O)[O-])ccc(c34)C2=O)c1`, the displacement worked out at 26.7%.

Turning to `CC1=C(C(=O)Nc2ccc(Br)cc2)C(c2ccc(O)cc2)NC(=S)N1` (centres undefined), the displacement was 4.4%.

Turning to `CCn1c(/C=C/c2cc(Br)ccc2O)nc2ccccc2c1=O`, the displacement stood at 6.3%.

In the case of `Cc1ccc(OCC(=O)O/N=C(\N)c2ccc([N+](=O)[O-])cc2)c(Br)c1`, the displacement was -0.6%.

Turning to `COc1ccccc1C1C(C(C)=O)=C(O)C(=O)N1CCN(C)C` (centres undefined), the displacement came out at 2.7%.

In the case of `COc1ccc2nc(NC(=S)NC(=O)c3ccco3)sc2c1`, the displacement was -6.4%.

As to `COC(=O)C1=C(C)N(C)C(C)=C(C(=O)OC)C1c1cc(OC)ccc1OC`, the displacement was -6.4%.

As to `COc1ccc(/C=C2/SC(=O)NC2=O)cc1[N+](=O)[O-]`, the displacement turned out to be 2.8%.

On to `c1ccc(CCc2nc(-c3cccnc3)no2)cc1`, for which the displacement came to 6.5%.

As for `CCOC(=O)C(CCCOc1ccc(C(C)(C)C)cc1)C(=O)OCC`, the displacement amounted to 5.2%.

As to `O=C(CN1C(=O)S/C(=C/c2ccccc2F)C1=O)Nc1ccc(O)cc1`, the displacement was found to be 8.5%.

As to `O=C1C2C(c3ccc([N+](=O)[O-])cc3)OC3(C(=O)c4ccccc4C3=O)C2C(=O)N1c1ccc(Cl)cc1` (centres undefined), the displacement stood at 1.4%.

In the case of `O=[N+]([O-])c1ccc(C=Nc2ccc3c(c2)Cc2cc([N+](=O)[O-])ccc2-3)cc1`, the displacement was -2.7%.

For the compound `COc1ccc(Cc2nnc(NC(=O)Nc3ccc(Cl)c(Cl)c3)s2)cc1`, the displacement is 8.3%.
